Reference: PubChem BioAssay AID1159614 (National Center for Advancing Translational Sciences (NCATS), 2016)
The whole screen tested about 45,000 compounds, of which about 65 (0.1%) were called active. Calls come from the whole dose curve; as a rule, active = well fitted activation curve with a large enough effect; inconclusive = small, poorly fitted or top-dose-only effect; inactive = no such curve, though single readings can be large or run the other way. Some of the results follow.

Molecular target: Galactocerebrosidase (Homo sapiens) (UniProt P54803)
Chain of UniProt P54803 (P54803 whole entry, looked up): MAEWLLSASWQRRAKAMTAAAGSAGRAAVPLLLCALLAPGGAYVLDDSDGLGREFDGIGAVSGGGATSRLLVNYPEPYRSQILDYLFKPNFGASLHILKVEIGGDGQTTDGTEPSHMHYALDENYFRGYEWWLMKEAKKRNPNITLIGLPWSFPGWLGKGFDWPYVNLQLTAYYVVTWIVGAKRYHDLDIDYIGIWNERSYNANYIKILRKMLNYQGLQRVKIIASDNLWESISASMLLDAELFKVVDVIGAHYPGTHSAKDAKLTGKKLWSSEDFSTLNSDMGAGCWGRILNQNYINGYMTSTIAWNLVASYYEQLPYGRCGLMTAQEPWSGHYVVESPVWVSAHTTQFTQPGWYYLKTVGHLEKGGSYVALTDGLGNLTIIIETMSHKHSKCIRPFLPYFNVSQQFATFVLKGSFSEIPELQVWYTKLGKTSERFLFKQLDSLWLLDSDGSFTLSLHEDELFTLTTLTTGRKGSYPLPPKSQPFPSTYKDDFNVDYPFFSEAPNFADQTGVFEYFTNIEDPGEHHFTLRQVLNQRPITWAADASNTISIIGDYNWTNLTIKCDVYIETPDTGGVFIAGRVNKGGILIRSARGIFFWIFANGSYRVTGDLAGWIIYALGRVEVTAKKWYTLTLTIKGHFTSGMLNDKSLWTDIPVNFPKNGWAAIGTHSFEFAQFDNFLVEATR
Assay: A Novel Cell-Based Assay to Identify Small Molecules for B -Galactocerebrosidase; note: 0% is about no effect; nearly all actives have a fitted effect of over 65% in size
Conditions: 145M-Twi-hGALC-G270D cells, HMU-beta-Gal fluorescence, 48 h; series mostly up to 57.5 µM; activation: at the top concentration
Outline: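 qHTS, 1536-well; 145M-Twi-hGALC-G270D cells (WT line also made) in DMEM/F12 + 10% FBS; compound incubation on live cells; HMU-β-gal 0.1 mM final, pH 5.2, NaTC; carbonate stop; fluorescence increase = enhanced residual activity.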

activation, inactive:
CCOC(=O)c1c(C)[nH]c(C)c1S(=O)(=O)NCC(=O)Nc1cc(C)ccc1OC -15.1%, O=C(NC(=O)c1ccc(F)cc1)Nc1ccc(-c2cc(C(F)(F)F)nn2-c2ccccc2)cc1 -16.5%, O=C(NCCc1csc2nc(-c3ccccc3F)nn12)c1ccco1 -11.9%, CN1C(C(=O)c2ccccc2)=C(OC(=O)c2ccc(Br)cc2)c2ccccc2S1(=O)=O -7.77%, Cc1oc2c(c(C)cc3oc(=O)c(CC(=O)NCCc4ccccc4)c(C)c32)c1C 10.8%, CN1CCN(c2cc3c(cc2F)c(=O)c(C(=O)O)cn3-c2ccc(F)cc2)CC1 -7.68%, O=C(O)CCCC[C@@H]1SC[C@@H]2NC(=O)N[C@@H]21 -17.9%, COc1cccc(C2C=C(c3ccc(C)c(C)c3)Nc3nnnn32)c1OC (configuration not stated) -9.01%, Cc1ccc(-c2c(CN3CCN(c4cccc(C(F)(F)F)c4)CC3)csc2C)cc1 2.94%, CCOC(=O)c1ccc(Nc2nc3ccccc3nc2NS(=O)(=O)c2ccc(Cl)cc2)cc1 -3.22%, CCN1CCN(CCCNC(=O)c2cnn(-c3ccccc3)c2C2CCN(C(=O)OC(C)(C)C)CC2)CC1 -11.1%, COc1ccc(N2CCN(S(=O)(=O)CCNC(=O)C(c3ccccc3)c3ccccc3)CC2)cc1 -18.5%, COCC(=O)Nc1c(I)c(C(=O)NCC(O)CO)c(I)c(C(=O)N(C)CC(O)CO)c1I (configuration not stated) -5.77%, O=C1CSC2(C(=O)N(Cc3ccccc3F)c3ccccc32)N1c1ccc(F)cc1 (configuration not stated) -33%, COc1cc(NC(=O)c2ccc(C)cc2)ccc1NC(=O)c1cc2ccccc2o1 -0.195%, Cc1ccc(C)c(CN2C(=O)C(=O)c3ccccc32)c1 -11%, Cc1cc2nn(-c3ccccc3)nc2cc1NC(=O)c1cccc2c(Cl)cccc12 -24.8%, COc1ccc(-n2ccnc2SCC(=O)Nc2ccc(F)cc2F)cc1 -3.34%, O=C(NCCc1ccccc1)c1ccc(CS(=O)(=O)c2ccc(Br)cc2)o1 -10.5%, Cc1ccc2onc(CNC(=O)N3CCN(c4cccc(C)c4C)CC3)c2c1 -11.9%, COc1ccc(CCC(=O)N2CCc3c([nH]c4ccccc34)C2c2ccc(F)cc2)cc1 (configuration not stated) -12.4%, Cc1coc2ccccc2c1=O -13.3%, CCSc1nnc2n(-c3cccc(C)c3)c(=O)c3c4c(sc3n12)CCCC4 -18.1%, CCC(=O)N1c2ccccc2CC1C(=O)NCc1ccc(OC(C)C)cc1 (configuration not stated) -4.59%, CCN(CCCNC(=O)Cn1ncc2c([nH]c3ccc(C)cc32)c1=O)c1cccc(C)c1 -9.74%, Cc1nc2cccnc2n1-c1cccc(C(=O)N2CCN(c3ccc(Cl)cc3)CC2)c1 -5.03%, CCc1ccccc1NC(=O)c1ccc2c(c1)N(Cc1cccc(Cl)c1)C(=O)c1ccccc1S2(=O)=O -7.19%, Cc1csc2nc(-c3cccc(NC(=O)C(C)C)c3)cn12 -12.2%, CCOC(=O)Nc1ccc(NCc2ccc(F)cc2)nc1N -12.5%, CCOc1ccc(-c2nc(SCC(=O)Nc3ccc4c(c3)OCO4)c(-c3ccc(F)cc3)[nH]2)cc1 -12.6%, COc1ccc(C2CC(=O)Nc3c2c(C)nn3-c2nncc(-c3ccc(C)cc3)n2)c(OC)c1OC (configuration not stated) -14.9%, Cc1cccc(CCNC(=O)c2sc3nc4n(c(=O)c3c2C)CCCC4)c1 -6.65%, CCc1ccc(CNC(=O)C2CCN(c3nn4cc(-c5ccc(F)cc5)nc4s3)CC2)cc1 -7.78%, Cc1cccc(-c2nnc(C3CCN(S(=O)(=O)c4cccc(Cl)c4)CC3)o2)c1 -13.7%, COc1cc(C2NC(=O)c3c(sc4c3CCN(C)C4)N2)cc(OC)c1OC (configuration not stated) -12.4%, CCOc1cc2[nH]c(=O)n(Cc3ccc(C(=O)N4CCN(c5cccc(Cl)c5)CC4)cc3)c(=O)c2cc1OCC -6%, CC(=O)CSc1nnc2[nH]c(=O)cc(N)n12 -23%, Cn1nc(C(=O)Nc2ccc(F)c(Cl)c2)c2c1-c1ccccc1S(=O)(=O)C2 -7.81%, O=C(Cn1c(=O)nc(-c2ccccc2)c2cc(Cl)ccc21)N1CCN(c2ccc(F)cc2)CC1 -22.4%, COc1ccc(Br)cc1CN1C(=O)c2ccccc2C1C(=O)NC1CCCCCC1 (configuration not stated) -1.29%, CCOC(=O)c1c(C)c(-c2ccccc2)n(CC(=O)NC2CCCCC2)c1C -13.3%, COC(=O)C1=C(C)NC(C)=C(C(=O)OC(C)C)C1c1cccc2nonc12 (configuration not stated) -15.9%, CCOC(=O)C1CCN(C(c2cccc(F)c2)c2c(O)cc(C)n(CCOC)c2=O)CC1 (configuration not stated) -39.3%, CCN(C(=O)c1cnc2ccc(C)cn2c1=O)c1ccccc1 -11.1%, CCOC(=O)c1c(C)[nH]c(C)c1S(=O)(=O)N1CCCC(C(=O)N2CCN(c3cccc(C)c3C)CC2)C1 (configuration not stated) -7.1%, COc1ccc(Cl)cc1NC(=O)c1nn(-c2ccc(C)cc2)c(=O)n(C)c1=O -9.2%, COc1cc(NC(=O)Cn2cnc(S(=O)(=O)N3CCCC3)c2)cc(OC)c1OC 2.92%, Cc1cccc(CNC(=O)CS(=O)(=O)c2cccc3nsnc23)c1 0.548%, O=C(Nc1ccc2c(c1)CCCN2C(=O)c1cccs1)c1ccccc1Cl -17.4%, CCc1ccc(NC(=O)C2CCN(c3nn4c(=O)cc(C)nc4s3)CC2)cc1 -0.503%, Clc1ccc(-c2noc3ncnc(NCCc4ccccc4)c23)cc1 -14.2%, O=C1OC(OC(=O)c2cccnc2Nc2cccc(C(F)(F)F)c2)c2ccccc21 (configuration not stated) -27%, Cc1cc(C)cc(NS(=O)(=O)c2cc3c(cc2C)NC(=O)CO3)c1 -5.13%, COc1cc(OC)c(Nc2nc3ccc(C(=O)c4ccccc4)cc3n3c(C)nnc23)cc1Cl -12.9%, O=C(Nc1ccc(OC(F)(F)F)cc1)c1cc2ccccn2n1 -15.7%, O=c1nc2n(-c3ccccc3F)c3ccccc3cc-2c(=O)[nH]1 -22.1%, CCCCn1cc2c(c1-c1ccc(Cl)cc1)c(=O)n(C)c(=O)n2C -17.6%, CCCN(C(=O)Cn1cnc2onc(-c3ccc(F)cc3)c2c1=O)c1cccc(Cl)c1 -24.7%, CCC(Sc1nc2ccccc2c(=O)n1CCc1ccc(OC)c(OC)c1)C(=O)N(CC)CC (configuration not stated) -0.415%, CCOc1ccc(CCNS(=O)(=O)c2cc(Br)cc3c2N(C(C)=O)CC3)cc1OCC -1.86%, Cc1cc(C)n(-c2nc3ccccc3nc2Nc2cccc(C)c2C)n1 -16.5%, CCC(=O)N(CCC(c1ccccc1)c1ccc2c(c1)OCO2)Cc1ccc(OC(C)C)cc1 (configuration not stated) -31.1%
